Results published in the supplement of paper PMC8047034.
Counter-ions that a name gives are not always drawn. This is one part of the list. Single values are uncertain, as repeats are few or missing.

Tested on: OVCAR4
Assay: log2 surviving fraction (library drug vs vehicle, or drug + carboplatin vs carboplatin alone; relative to plate median); ovarian cancer lines: OVCAR4 is platinum-sensitive and Ov4Carbo platinum-resistant; higher = more cell survival
Settings: library drug concentration 10 µM; 7 days; carboplatin co-treatment 0 µM

Compound	log2 surviving fraction
CC=CC1=C(C(=O)O)N2C(=O)[C@@H](NC(=O)[C@H](N)c3ccc(O)cc3)[C@H]2SC1 [Cefprozil hydrate (Cefzil)]	0.0627
O=c1[nH]c(=O)n([C@H]2C[C@H](O)[C@@H](CO)O2)cc1I [Idoxuridine]	-0.796
COc1cc(C)c(/C=C/C(C)=C/C=C/C(C)=C/C(=O)O)c(C)c1C [Acitretin]	1.16
Cc1c(N(C)C)c(=O)n(-c2ccccc2)n1C [Amidopyrine]	-0.399
CN1CCc2cc3c(cc2C1O)OCO3 (stereo not given) [Hydrastinine HCl]	0.413
CCCCCCCCCCCCCCCCO [1-Hexadecanol]	-0.661
C[C@@H]1CC(=O)NN=C1c1ccc(NN=C(C#N)C#N)cc1 [Levosimendan]	-0.836
CO[C@H]1/C=C/O[C@@]2(C)Oc3c(C)c(O)c4c(O)c(c5c(nc6cc(C)ccn65)c4c3C2=O)NC(=O)/C(C)=C\C=C\[C@H](C)[C@H](O)[C@@H](C)[C@@H](O)[C@@H](C)[C@H](OC(C)=O)[C@@H]1C [Rifaximin (Xifaxan)]	0.162
O=C(O)c1cc(/N=N/c2ccc(S(=O)(=O)Nc3ccccn3)cc2)ccc1O [Sulfasalazine (Azulfidine)]	-4.07
Cc1cccc(Nc2ccccc2C(=O)O)c1C [Mefenamic acid]	-0.339

Same assay, conditions: library drug concentration 10 µM; 7 days; carboplatin co-treatment 5 µM

Compound	log2 surviving fraction
CCOC(=O)C(C)(C)Oc1ccc(Cl)cc1 [Clofibrate (Atromid-S)]	0.157
C[C@@H]1CCN(C(=O)CC#N)C[C@@H]1N(C)c1ncnc2[nH]ccc12	1.15
CCC[C@@H]1C[C@@H](C(=O)N[C@@H]([C@H]2O[C@H](SC)[C@H](O)[C@@H](O)[C@H]2O)[C@H](C)Cl)N(C)C1 [Clindamycin hydrochloride (Dalacin)]	0.623
CO[C@H]1C(=O)[C@]2(C)[C@@H](OC)C[C@H]3OC[C@@]3(OC(C)=O)[C@H]2[C@H](OC(=O)c2ccccc2)[C@]2(O)C[C@H](OC(=O)[C@H](O)[C@@H](NC(=O)OC(C)(C)C)c3ccccc3)C(C)=C1C2(C)C [Cabazitaxel (Jevtana)]	-5.77
CN(CCOc1ccc(NS(C)(=O)=O)cc1)CCc1ccc(NS(C)(=O)=O)cc1 [Dofetilide (Tikosyn)]	-0.786
CC(C)[C@H]1CC[C@H](C(=O)N[C@H](Cc2ccccc2)C(=O)O)CC1 [Nateglinide (Starlix)]	0.415
Nc1c(CC(=O)O)cccc1C(=O)c1ccccc1 [Amfenac Sodium (monohydrate)]	0.577
c1ccc2nc(N3CCNCC3)ccc2c1 [Quipazine Maleate]	-1.43
OC(c1ccccc1)(c1ccccc1)C1CCNCC1 [Azacyclonol]	-0.355
C#C[C@]1(O)CC[C@H]2[C@@H]3CCC4=CC(=O)CC[C@@H]4[C@H]3CC[C@@]21C [norethindrone]	0.279
CC[C@H]1OC(=O)[C@H](C)[C@@H](O[C@H]2C[C@@](C)(OC)[C@@H](O)[C@H](C)O2)[C@H](C)[C@@H](O[C@@H]2O[C@H](C)C[C@H](N(C)C)[C@H]2O)[C@](C)(OC)C[C@@H](C)C(=O)[C@H](C)[C@@H](O)[C@]1(C)O [Clarithromycin (Biaxin, Klacid)]	0.551
CCCCC(=O)O[C@]1(C(=O)CO)[C@@H](C)C[C@H]2[C@@H]3CCC4=CC(=O)C=C[C@]4(C)[C@@]3(F)[C@@H](O)C[C@@]21C [Betamethasone valerate (Betnovate)]	0.511
CN(C)CCCSC(=N)N [Dimaprit 2HCl]	-0.35
CC(NCCc1ccc(O)cc1)C(O)c1ccc(O)cc1 (stereo not given) [Ritodrine hydrochloride (Yutopar)]	-0.614
c1ccc2c(CC3=NCCN3)cccc2c1 [Naphazoline hydrochloride (Naphcon)]	-0.651
COCCCC/C(=N\OCCN)c1ccc(C(F)(F)F)cc1 [Fluvoxamine maleate]	-0.827
CN(C)C(=O)C(CCN1CCC(O)(c2ccc(Cl)cc2)CC1)(c1ccccc1)c1ccccc1 [Loperamide hydrochloride]	-4.95
CN(C)CCc1c[nH]c2ccc(Cn3cncn3)cc12 [Rizatriptan Benzoate (Maxalt)]	-0.0536
CC(=O)Oc1ccccc1C(=O)Nc1ncc([N+](=O)[O-])s1 [Nitazoxanide (Alinia, Annita)]	-0.244
CC(C)c1c(C(=O)Nc2ccccc2)c(-c2ccccc2)c(-c2ccc(F)cc2)n1CC[C@@H](O)C[C@@H](O)CC(=O)O [Atorvastatin calcium (Lipitor)]	-1.85

Compound	log2 surviving fraction
O=C(CCCN1CC=C(n2c(=O)[nH]c3ccccc32)CC1)c1ccc(F)cc1 [Droperidol]	-1.36
CCn1cc(C(=O)O)c(=O)c2cc(F)c(N3CCNC(C)C3)c(F)c21 (stereo not given) [Lomefloxacin hydrochloride (Maxaquin)]	0.459
CNC(=O)Oc1ccc2c(c1)[C@]1(C)CCN(C)[C@@H]1N2C [Physostigmine Hemisulfate Salt]	0.68
CCCC(CCC)C(=O)O[C@H]1C[C@H]2CC[C@@H](C1)[N+]2(C)C [Anisotropine Methylbromide]	-0.256
CC(CN(C)C)CN1c2ccccc2CCc2ccccc21 (stereo not given) [Trimipramine Maleate]	1.02
Clc1ccc(CCC(Cn2ccnc2)Sc2c(Cl)cccc2Cl)cc1 (stereo not given) [Butoconazole nitrate]	-2.24
Cl.N=C(N)NCCC[C@H](N)C(=O)O [L-Arginine HCl]	0.993
CN1CCN(c2cc3c(cc2F)c(=O)c(C(=O)O)cn3-c2ccc(F)cc2)CC1 [Difloxacin HCl]	0.527
Cn1c([N+](=O)[O-])cnc1COC(N)=O [Ronidazole]	-0.137
O=c1ccn([C@@H]2O[C@H](CO)[C@@H](O)[C@H]2O)c(=O)[nH]1 [Uridine]	-0.377
CC=CC1=C(C(=O)O)N2C(=O)[C@@H](NC(=O)[C@H](N)c3ccc(O)cc3)[C@H]2SC1 [Cefprozil hydrate (Cefzil)]	-0.12
O=c1[nH]c(=O)n([C@H]2C[C@H](O)[C@@H](CO)O2)cc1I [Idoxuridine]	-0.83
COc1cc(C)c(/C=C/C(C)=C/C=C/C(C)=C/C(=O)O)c(C)c1C [Acitretin]	0.656
Cc1c(N(C)C)c(=O)n(-c2ccccc2)n1C [Amidopyrine]	-0.663
CN1CCc2cc3c(cc2C1O)OCO3 (stereo not given) [Hydrastinine HCl]	2.17
CCCCCCCCCCCCCCCCO [1-Hexadecanol]	0.161
C[C@@H]1CC(=O)NN=C1c1ccc(NN=C(C#N)C#N)cc1 [Levosimendan]	-0.838
CO[C@H]1/C=C/O[C@@]2(C)Oc3c(C)c(O)c4c(O)c(c5c(nc6cc(C)ccn65)c4c3C2=O)NC(=O)/C(C)=C\C=C\[C@H](C)[C@H](O)[C@@H](C)[C@@H](O)[C@@H](C)[C@H](OC(C)=O)[C@@H]1C [Rifaximin (Xifaxan)]	-1.05
O=C(O)c1cc(/N=N/c2ccc(S(=O)(=O)Nc3ccccn3)cc2)ccc1O [Sulfasalazine (Azulfidine)]	1.33
Cc1cccc(Nc2ccccc2C(=O)O)c1C [Mefenamic acid]	-0.437
